42 sequences from PMC7819943, “Rice protein-binding microarrays: a tool to detect cis-acting elements near promoter regions in rice” can be followed below.

This is one part of the list.

The assay has as its target T1, OsWOX13 (Oryza sativa, UniProt Q5QMM3 1-267).
T1 sequence: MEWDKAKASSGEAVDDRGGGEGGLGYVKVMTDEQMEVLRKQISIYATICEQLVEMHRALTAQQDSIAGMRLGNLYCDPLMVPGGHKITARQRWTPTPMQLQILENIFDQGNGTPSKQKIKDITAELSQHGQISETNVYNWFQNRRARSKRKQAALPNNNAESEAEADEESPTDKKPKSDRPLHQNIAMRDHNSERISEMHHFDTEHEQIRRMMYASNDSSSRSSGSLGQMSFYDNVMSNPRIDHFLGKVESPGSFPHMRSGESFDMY
Kind of assay: protein-binding microarray (RPBM); PBS, 2% BSA, 51.3 ng/ul salmon testes DNA, 50 uM zinc acetate, 200 nM TF, 25 C, 1 h; high values mean tight binding. Particulars: protein: recombinant; tags: N-terminal polyhistidine and DsRed monomer fusion (pET32a); label: CyDye5-dUTP incorporated in the synthesized complementary strand; 3' TTTTT single-stranded linker to array surface; dsDNA, one strand shown. An outline of the steps:
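Binding signal here means per-feature fluorescence intensity in arbitrary units. The values were read on an Axon 4000B scanner after a custom Agilent array, double-stranded by primer extension with Cy5-dUTP, was incubated with 200 nM protein at 25 °C for 1 h in PBS with 2% BSA, salmon testes DNA and 50 µM zinc acetate, then washed. The proteins were transcription factors with an N-terminal polyhistidine tag and DsRed, expressed in E. coli BL21-CodonPlus and purified on Ni–NTA.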
On to “ATTTGATAGAAAATTGAAGGTTAACATAAACATTTAAATGCGGAGTCACCTAGTGCAG”, for which the binding signal is 32400 fluorescence intensity (a.u.). For “AAAGGAATCAATCATAATATGGTTGGCTCAACGTAGCAAGCGGAGTCACCTAGTGCAG” the value was 10200 fluorescence intensity (a.u.). For “ATACTCTAAATTAGTGTTTAAAGACAGGGAGACAGGGACTCGGAGTCACCTAGTGCAG”, the binding signal is 12900 fluorescence intensity (a.u.).

For “TAAGCCTAATTAGTCTATGATTAGCCATAAGTGCTACAGTCGGAGTCACCTAGTGCAG”, the binding signal is 37800 fluorescence intensity (a.u.). For “TGTGATTGACCGAGAAGAGAATAATGGTGGAGTTATTATGCGGAGTCACCTAGTGCAG” the value was 32600 fluorescence intensity (a.u.); for “TAACATAGATTTGACTAAACTTTACCGGGTTTAATATTAACGGAGTCACCTAGTGCAG”, 3300 fluorescence intensity (a.u.).

Consider “TGATAACCAATTCCCAGATGATTATTGTTATCCTCTCCTCCGGAGTCACCTAGTGCAG”, for which the binding signal is 5840 fluorescence intensity (a.u.).

Turning to “GTTGATGTGATAGAAAAGGACTGAAGTTTGGATCCAAAATCGGAGTCACCTAGTGCAG”, the binding signal was 8120 fluorescence intensity (a.u.). For “AGATTAATTCCTGCCTAATTTTGTTCTGAACTTCAGTTTACGGAGTCACCTAGTGCAG” the value was 8280 fluorescence intensity (a.u.); for “GATGGAAATTTGTGTGATGAACGGAACGGAGTGTGTACAGCGGAGTCACCTAGTGCAG”, 5730 fluorescence intensity (a.u.); for “TAAAATTAGAATTACAGAGAAACCAAGCTTCCGTTGTAGTCGGAGTCACCTAGTGCAG”, 14800 fluorescence intensity (a.u.). Regarding “ACAAACTTCATTAACTACTGAATTAGTGCGTTTCATCTCACGGAGTCACCTAGTGCAG”, the binding signal was 3650 fluorescence intensity (a.u.). In the case of “AAAACTGCTCACTTTCCGCTAATTATGACTTAATTTAAGGCGGAGTCACCTAGTGCAG” it was 16600 fluorescence intensity (a.u.). For “TTTCTTAAATTGAACAAATAATTAATTGTGAAAAGAGAGGCGGAGTCACCTAGTGCAG” the value was 30800 fluorescence intensity (a.u.).

Regarding “TTCTTTGATTTCACCTACAGGATTGCAAGGAGGCAACTCCCGGAGTCACCTAGTGCAG”, the binding signal is 3270 fluorescence intensity (a.u.).

“CGCAATCATAGTAATATTATATTTTGATGTAATTTACAAACGGAGTCACCTAGTGCAG”: the binding signal is 3930 fluorescence intensity (a.u.). For “GCCATATGATAATTTGCTTTTCTACCATACTAACGTAGGTCGGAGTCACCTAGTGCAG” the value was 4420 fluorescence intensity (a.u.); for “GGAATTATATTACAATTATACTACACTTAGATTTTGAAAGCGGAGTCACCTAGTGCAG”, 4640 fluorescence intensity (a.u.); for “CTGGCGAGGGTGCTCGGTGGCCGATCCCTGCGTACGACGACGGAGTCACCTAGTGCAG”, 7490 fluorescence intensity (a.u.). Consider “CGTTGTGATTTATGAACAGCTCCTGCCAGAAACCAGAGTTCGGAGTCACCTAGTGCAG”, for which the binding signal was 17000 fluorescence intensity (a.u.). In the case of “ATTTAGATTTAATCACACATCAGTCTGCCATTGTTACTACCGGAGTCACCTAGTGCAG” it was 15600 fluorescence intensity (a.u.); in that of “CAACAATTTACATTGAATTTGATTGACAAAGGTATACGATCGGAGTCACCTAGTGCAG”, 32600 fluorescence intensity (a.u.); in that of “TTTGACTGAGGTTTAGACTAGAGCTGTACTAAACATGCCCCGGAGTCACCTAGTGCAG”, 31300 fluorescence intensity (a.u.). For “ACACACAATTAGATTAGACATGCTTGGACTGATGACTTAGCGGAGTCACCTAGTGCAG” the value was 26100 fluorescence intensity (a.u.). For “ACCACATAAATTTCTCTCTAATGCGAACATTCAAATGTGACGGAGTCACCTAGTGCAG”, the binding signal was 3260 fluorescence intensity (a.u.). In the case of “AAACAAAATGATTTGTATATGAAACGGAGGGAGTAATAAGCGGAGTCACCTAGTGCAG” it was 9570 fluorescence intensity (a.u.); in that of “TAATTTTAATTAATTCTAAATTGTATATTTGTATAGACTCCGGAGTCACCTAGTGCAG”, 9440 fluorescence intensity (a.u.); in that of “CACAATCTAATCAAGCTTCATCCGAGGCAGATCTCCACACCGGAGTCACCTAGTGCAG”, 7440 fluorescence intensity (a.u.). Take “TTGATTGGGTAACAAAAGGGAACAATGGCTTATACTTTAACGGAGTCACCTAGTGCAG”: the binding signal is 16700 fluorescence intensity (a.u.). In the case of “TAAACAGACGTGCAATTAAGGGTCGAAGGATACTCGCTTTCGGAGTCACCTAGTGCAG” it was 6170 fluorescence intensity (a.u.). Turning to “AGCAGTTTAGATTGGATACATATCAAAATTTATCTTGCCACGGAGTCACCTAGTGCAG”, the binding signal is 28200 fluorescence intensity (a.u.). In the case of “GTTTCTCTAATTTATTTTGTGATAGCGCTTCAACCAACTCCGGAGTCACCTAGTGCAG” it was 22000 fluorescence intensity (a.u.); in that of “CTCCTCCAAATTAAATCAACCAGCAGCAAACCATCCAGTACGGAGTCACCTAGTGCAG”, 3380 fluorescence intensity (a.u.); in that of “GATACATGCAAACAATGTGATTGGAAGGTTTGATAATATACGGAGTCACCTAGTGCAG”, 8200 fluorescence intensity (a.u.). In the case of “TTTGAGTTTTAAATAGATTAGTGTTTGAGAGGGAGCCCTTCGGAGTCACCTAGTGCAG” it was 3830 fluorescence intensity (a.u.); in that of “TCTCCTTAATTAGTCATTGCAATGCTCCTTGCCTTGTATTCGGAGTCACCTAGTGCAG”, 24500 fluorescence intensity (a.u.); in that of “TTCTCAATTTTCTTTTAATATATTGTTAAACGTGACCGTTCGGAGTCACCTAGTGCAG”, 9240 fluorescence intensity (a.u.).

Consider “TTTAATTTAATTCGAGGAGGAGAAGAAGCAGAGGAGGAGGCGGAGTCACCTAGTGCAG”, for which the binding signal is 3920 fluorescence intensity (a.u.). For “TACAACAATAATTTTGATCAAAGATTAAGCTATTTTGACTCGGAGTCACCTAGTGCAG” the value was 9830 fluorescence intensity (a.u.); for “ATTAAATTTAATTCATATTGTACTTGAATGTTGGTCAAAACGGAGTCACCTAGTGCAG”, 23400 fluorescence intensity (a.u.); for “AAATAATTACACGTGACCAAAACAATACTACTACGACGACCGGAGTCACCTAGTGCAG”, 18200 fluorescence intensity (a.u.). For “ATATATATATATATATATATATATCACTTTTCAATAAATACGGAGTCACCTAGTGCAG” the value was 28400 fluorescence intensity (a.u.).
